Data as given in IntAct's records for PubMed 17717527.

B1: Exocyst complex component EXO70 (Saccharomyces cerevisiae), P19658 (parent)
chain: MPAEIDIDEADVLVLSQELQKTSKLTFEINKSLKKIAATSNQSSQLFTPILARNNVLTTLQRNIESTLNSVASVKDLANEASKYEIILQKGINQVGLKQYTQVVHKLDDMLEDIQSGQANREENSEFHGILTHLEQLIKRSEAQLRVYFISILNSIKPFDPQINITKKMPFPYYEDQQLGALSWILDYFHGNSEGSIIQDILVGERSKLILKCMAFLEPFAKEISTAKNAPYEKGSSGMNSYTEALLGFIANEKSLVDDLYSQYTESKPHVLSQILSPLISAYAKLFGANLKIVRSNLENFGFFSFELVESINDVKKSLRGKELQNYNLLQDCTQEVRQVTQSLFRDAIDRIIKKANSISTIPSNNGVTEATVDTMSRLRKFSEYKNGCLGAMDNITRENWLPSNYKEKEYTLQNEALNWEDHNVLLSCFISDCIDTLAVNLERKAQIALMPNQEPDVANPNSSKNKHKQRIGFFILMNLTLVEQIVEKSELNLMLAGEGHSRLERLKKRYISYMVSDWRDLTANLMDSVFIDSSGKKSKDKEQIKEKFRKFNEGFEDLVSKTKQYKLSDPSLKVTLKSEIISLVMPMYERFYSRYKDSFKNPRKHIKYTPDELTTVLNQLVR
partner: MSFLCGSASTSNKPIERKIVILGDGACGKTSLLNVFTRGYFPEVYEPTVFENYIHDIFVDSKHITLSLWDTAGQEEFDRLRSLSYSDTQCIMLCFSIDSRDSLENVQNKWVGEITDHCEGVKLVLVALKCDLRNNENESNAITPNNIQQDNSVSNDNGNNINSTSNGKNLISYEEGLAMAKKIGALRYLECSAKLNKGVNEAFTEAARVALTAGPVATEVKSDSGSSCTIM

Variants of: B1
Conditions: with rho3_yeast RHO3, Q00245

effect of a mutation on the interaction | Variant
disrupting interaction | E443A;R444A;K445A

Variants of: B1
Conditions: with rho3_yeast RHO3, Q00245
Remark: another data set of the same source

effect of a mutation on the interaction | Variant
disrupting interaction | E488A;K489A;E491A
